{"source": "the supplement of paper PMC12217912", "parents": {"B1": {"name": "TEV protease; numbered along this chain (parent)", "chain": "MGESLFKGPRDYNPISSSICHLTNESDGHTTSLYGIGFGPFIITNKHLFRRNNGTLVVQSLHGVFKVKDTTTLQQHLVDGRDMIIIRMPKDFPPFPQKLKFREPQREERICLVTTNFQTKSMSSMVSDTSCTFPSGDGIFWKHWIQTKDGQCGSPLVSTRDGFIVGIHSASNFTNTNNYFTSVPKNFMELLTNQEAQQWVSGWRLNADSVLWGGHKVFMVKPEEPFQPVKEATQL"}}, "note": "The list shows a part of the results. The full chains were built here from the parent and the listed change. Values near 0.05 are background.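 Note: Bxb1 expression induced with 0.2% (w/v) L-rhamnose at OD600 near 0.5, cultures sampled hourly, flipped fraction per protease–substrate barcode pair counted by paired-end Illumina sequencing.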", "data": [{"variants_of": "B1", "assay": "raw area under fraction-flipped curve 0-4 h after induction (AUC4h, not background-subtracted), DNA-recorder readout of cleavage of the substrate (dimensionless); higher = more cleavage of the substrate by the protease variant", "conditions": "temperature: 34 °C; time window: 0-4 h after rhamnose induction", "experimental": "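In vivo DNA recorder in E. coli TOP10(DE3) ΔrhaA at 34 °C. Each TEVp single-site mutant (parent TEVp 0) is paired with a single-site variant of the 7-mer TEVs (canonical ENLYFQ|S). The substrate sits between flexible linkers in a Bxb1-sfGFP-TEVs-SsrA fusion, so cleavage stabilises Bxb1 and speeds flipping of a recombination array, read by NGS. The value is the raw area under the fraction-flipped curve over 0-4 h after rhamnose induction (AUC4h), with ≥20 reads per time point. It is not background-subtracted; inactive controls average about 0.047.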", "values": [{"variant": "MCESLFKGPRDYNPISSSICHLTNESDGHTTSLYGIGFGPFIITNKHLFRRNNGTLVVQSLHGVFKVKDTTTLQQHLVDGRDMIIIRMPKDFPPFPQKLKFREPQREERICLVTTNFQTKSMSSMVSDTSCTFPSGDGIFWKHWIQTKDGQCGSPLVSTRDGFIVGIHSASNFTNTNNYFTSVPKNFMELLTNQEAQQWVSGWRLNADSVLWGGHKVFMVKPEEPFQPVKEATQL", "note": "[G2C]", "area with substrate EALYFQS": 0.0564, "area with substrate EFLYFQS": 0.129, "area with substrate EKLYFQS": 0.0569, "area with substrate EPLYFQS": 0.121, "area with substrate ERLYFQS": 0.0722}, {"variant": "MLESLFKGPRDYNPISSSICHLTNESDGHTTSLYGIGFGPFIITNKHLFRRNNGTLVVQSLHGVFKVKDTTTLQQHLVDGRDMIIIRMPKDFPPFPQKLKFREPQREERICLVTTNFQTKSMSSMVSDTSCTFPSGDGIFWKHWIQTKDGQCGSPLVSTRDGFIVGIHSASNFTNTNNYFTSVPKNFMELLTNQEAQQWVSGWRLNADSVLWGGHKVFMVKPEEPFQPVKEATQL", "note": "[G2L]", "area with substrate EALYFQS": 0.162, "area with substrate EELYFQS": 0.179, "area with substrate EGLYFQS": 0.111, "area with substrate EKLYFQS": 0.137, "area with substrate ELLYFQS": 0.12, "area with substrate EPLYFQS": 0.168, "area with substrate ERLYFQS": 0.169, "area with substrate ESLYFQS": 0.12, "area with substrate EWLYFQS": 0.125}, {"variant": "MGTSLFKGPRDYNPISSSICHLTNESDGHTTSLYGIGFGPFIITNKHLFRRNNGTLVVQSLHGVFKVKDTTTLQQHLVDGRDMIIIRMPKDFPPFPQKLKFREPQREERICLVTTNFQTKSMSSMVSDTSCTFPSGDGIFWKHWIQTKDGQCGSPLVSTRDGFIVGIHSASNFTNTNNYFTSVPKNFMELLTNQEAQQWVSGWRLNADSVLWGGHKVFMVKPEEPFQPVKEATQL", "note": "[E3T]", "area with substrate EALYFQS": 0.166, "area with substrate ECLYFQS": 0.118, "area with substrate EMLYFQS": 0.127, "area with substrate ESLYFQS": 0.128}, {"variant": "MGEQLFKGPRDYNPISSSICHLTNESDGHTTSLYGIGFGPFIITNKHLFRRNNGTLVVQSLHGVFKVKDTTTLQQHLVDGRDMIIIRMPKDFPPFPQKLKFREPQREERICLVTTNFQTKSMSSMVSDTSCTFPSGDGIFWKHWIQTKDGQCGSPLVSTRDGFIVGIHSASNFTNTNNYFTSVPKNFMELLTNQEAQQWVSGWRLNADSVLWGGHKVFMVKPEEPFQPVKEATQL", "note": "[S4Q]", "area with substrate EALYFQS": 0.102, "area with substrate ECLYFQS": 0.108, "area with substrate EHLYFQS": 0.119, "area with substrate EILYFQS": 0.0935, "area with substrate EMLYFQS": 0.126, "area with substrate EPLYFQS": 0.128, "area with substrate EQLYFQS": 0.126, "area with substrate ESLYFQS": 0.108, "area with substrate ETLYFQS": 0.131, "area with substrate EVLYFQS": 0.0939, "area with substrate EWLYFQS": 0.0976, "area with substrate EYLYFQS": 0.125}, {"variant": "MGESCFKGPRDYNPISSSICHLTNESDGHTTSLYGIGFGPFIITNKHLFRRNNGTLVVQSLHGVFKVKDTTTLQQHLVDGRDMIIIRMPKDFPPFPQKLKFREPQREERICLVTTNFQTKSMSSMVSDTSCTFPSGDGIFWKHWIQTKDGQCGSPLVSTRDGFIVGIHSASNFTNTNNYFTSVPKNFMELLTNQEAQQWVSGWRLNADSVLWGGHKVFMVKPEEPFQPVKEATQL", "note": "[L5C]", "area with substrate EALYFQS": 0.119, "area with substrate ECLYFQS": 0.128, "area with substrate EGLYFQS": 0.0958, "area with substrate EHLYFQS": 0.127, "area with substrate EILYFQS": 0.128, "area with substrate ESLYFQS": 0.0998, "area with substrate EWLYFQS": 0.0987}, {"variant": "MGESKFKGPRDYNPISSSICHLTNESDGHTTSLYGIGFGPFIITNKHLFRRNNGTLVVQSLHGVFKVKDTTTLQQHLVDGRDMIIIRMPKDFPPFPQKLKFREPQREERICLVTTNFQTKSMSSMVSDTSCTFPSGDGIFWKHWIQTKDGQCGSPLVSTRDGFIVGIHSASNFTNTNNYFTSVPKNFMELLTNQEAQQWVSGWRLNADSVLWGGHKVFMVKPEEPFQPVKEATQL", "note": "[L5K]", "area with substrate EALYFQS": 0.125, "area with substrate EELYFQS": 0.147, "area with substrate EHLYFQS": 0.111, "area with substrate EKLYFQS": 0.108, "area with substrate EPLYFQS": 0.17, "area with substrate ESLYFQS": 0.14, "area with substrate ETLYFQS": 0.139, "area with substrate EWLYFQS": 0.0972}, {"variant": "MGESNFKGPRDYNPISSSICHLTNESDGHTTSLYGIGFGPFIITNKHLFRRNNGTLVVQSLHGVFKVKDTTTLQQHLVDGRDMIIIRMPKDFPPFPQKLKFREPQREERICLVTTNFQTKSMSSMVSDTSCTFPSGDGIFWKHWIQTKDGQCGSPLVSTRDGFIVGIHSASNFTNTNNYFTSVPKNFMELLTNQEAQQWVSGWRLNADSVLWGGHKVFMVKPEEPFQPVKEATQL", "note": "[L5N]", "area with substrate EALYFQS": 0.143, "area with substrate ECLYFQS": 0.135, "area with substrate EGLYFQS": 0.12, "area with substrate EILYFQS": 0.135, "area with substrate EKLYFQS": 0.131, "area with substrate ELLYFQS": 0.0911, "area with substrate EPLYFQS": 0.121, "area with substrate EQLYFQS": 0.16, "area with substrate ESLYFQS": 0.134, "area with substrate ETLYFQS": 0.129, "area with substrate EVLYFQS": 0.121}, {"variant": "MGESLGKGPRDYNPISSSICHLTNESDGHTTSLYGIGFGPFIITNKHLFRRNNGTLVVQSLHGVFKVKDTTTLQQHLVDGRDMIIIRMPKDFPPFPQKLKFREPQREERICLVTTNFQTKSMSSMVSDTSCTFPSGDGIFWKHWIQTKDGQCGSPLVSTRDGFIVGIHSASNFTNTNNYFTSVPKNFMELLTNQEAQQWVSGWRLNADSVLWGGHKVFMVKPEEPFQPVKEATQL", "note": "[F6G]", "area with substrate EALYFQS": 0.0642, "area with substrate ECLYFQS": 0.0889, "area with substrate EELYFQS": 0.151, "area with substrate EILYFQS": 0.0911, "area with substrate EVLYFQS": 0.0805}, {"variant": "MGESLPKGPRDYNPISSSICHLTNESDGHTTSLYGIGFGPFIITNKHLFRRNNGTLVVQSLHGVFKVKDTTTLQQHLVDGRDMIIIRMPKDFPPFPQKLKFREPQREERICLVTTNFQTKSMSSMVSDTSCTFPSGDGIFWKHWIQTKDGQCGSPLVSTRDGFIVGIHSASNFTNTNNYFTSVPKNFMELLTNQEAQQWVSGWRLNADSVLWGGHKVFMVKPEEPFQPVKEATQL", "note": "[F6P]", "area with substrate EALYFQS": 0.0967, "area with substrate EILYFQS": 0.0813, "area with substrate ELLYFQS": 0.0798, "area with substrate EMLYFQS": 0.0959, "area with substrate EPLYFQS": 0.0985, "area with substrate ESLYFQS": 0.0929, "area with substrate EVLYFQS": 0.0886}, {"variant": "MGESLFLGPRDYNPISSSICHLTNESDGHTTSLYGIGFGPFIITNKHLFRRNNGTLVVQSLHGVFKVKDTTTLQQHLVDGRDMIIIRMPKDFPPFPQKLKFREPQREERICLVTTNFQTKSMSSMVSDTSCTFPSGDGIFWKHWIQTKDGQCGSPLVSTRDGFIVGIHSASNFTNTNNYFTSVPKNFMELLTNQEAQQWVSGWRLNADSVLWGGHKVFMVKPEEPFQPVKEATQL", "note": "[K7L]", "area with substrate EALYFQS": 0.069, "area with substrate ECLYFQS": 0.0703, "area with substrate EELYFQS": 0.0709, "area with substrate EILYFQS": 0.0485, "area with substrate EKLYFQS": 0.0728, "area with substrate EMLYFQS": 0.0622, "area with substrate EQLYFQS": 0.0724, "area with substrate ESLYFQS": 0.09}, {"variant": "MGESLFKGPFDYNPISSSICHLTNESDGHTTSLYGIGFGPFIITNKHLFRRNNGTLVVQSLHGVFKVKDTTTLQQHLVDGRDMIIIRMPKDFPPFPQKLKFREPQREERICLVTTNFQTKSMSSMVSDTSCTFPSGDGIFWKHWIQTKDGQCGSPLVSTRDGFIVGIHSASNFTNTNNYFTSVPKNFMELLTNQEAQQWVSGWRLNADSVLWGGHKVFMVKPEEPFQPVKEATQL", "note": "[R10F]", "area with substrate EALYFQS": 0.0909, "area with substrate EFLYFQS": 0.115, "area with substrate EILYFQS": 0.0739, "area with substrate EKLYFQS": 0.0703, "area with substrate ELLYFQS": 0.0731, "area with substrate EMLYFQS": 0.0828, "area with substrate EPLYFQS": 0.101, "area with substrate EQLYFQS": 0.0949, "area with substrate ERLYFQS": 0.0795, "area with substrate ESLYFQS": 0.088, "area with substrate EVLYFQS": 0.0481}]}]}
